Reference: the supplement of paper PMC4166925
± gives the standard deviation of the averaged measurements. The full ranking holds about 33,000 sequences; the median of “E-score (dimensionless, -0.5 to 0.5)” is about -0.046, and the highest 2% start at about 0.36. The list shows a part of the results.

test system: T1, SpTbr T-box DNA-binding domain (GST fusion); assay: PBM E-score of 8-mer (E-score (dimensionless, -0.5 to 0.5)); Tbr is Tbrain of the sea star Patiria miniata (Pm) or the sea urchin Strongylocentrotus purpuratus (Sp); higher = stronger binding preference; most listed sequences are background and not binding sites; settings: the construct has about 5 more residues each side
T1 sequence: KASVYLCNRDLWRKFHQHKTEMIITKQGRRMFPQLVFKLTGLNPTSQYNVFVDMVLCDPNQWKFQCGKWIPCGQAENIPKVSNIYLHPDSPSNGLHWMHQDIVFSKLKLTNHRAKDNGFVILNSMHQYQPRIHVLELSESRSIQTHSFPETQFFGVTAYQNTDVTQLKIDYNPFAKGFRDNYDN
Outline: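 GST-fused Tbr T-box DNA-binding domains (the whole T-box plus about five flanking residues) were expressed in BL21 E. coli at 20 °C and purified by glutathione affinity chromatography. Universal Agilent oligonucleotide arrays were made double-stranded by primer extension, incubated with 200 nM protein in PBS (pH 7.5), then scanned and quantified. Every ungapped 8-mer was scored from probe intensities. The Universal PBM Analysis Suite gave each word an enrichment E-score, averaged over duplicate arrays.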

Row | Sequence | PBM E-score of 8-mer
1 | TCGGGCCA | -0.0898 ± 0.084
2 | ACTCTTTG | 0.221 ± 0.066
3 | AGCGTTTG | -0.0532 ± 0.043
4 | GGGCGGGA | 0.0163 ± 0.094
5 | CGGAGTGC | 0.00458 ± 0.032
6 | ACAGGGGT | -0.0537 ± 0.021
7 | AGCAGCAA | -0.106 ± 0.074
8 | GCAGGCAC | 0.109 ± 0.017
9 | ACGACCGT | -0.0715 ± 0.028
10 | AGGATCGC | 0.119 ± 0.037
11 | CGAGTACA | -0.0204 ± 0.051
12 | ACCAACAC | 0.273 ± 0.0089
13 | CCGTCCAA | -0.0665 ± 0.012
14 | ATGAACTA | -0.0184 ± 0.014
15 | GATGGTGC | 0.0896 ± 0.077
16 | AGGTGCTA | 0.4822 ± 0.0033
17 | ATACGTGA | 0.172 ± 0.011
18 | CCCAGCCA | -0.0443 ± 0.041
19 | ATGTCTAG | -0.0188 ± 0.02
20 | CCTCGGTA | 0.0026 ± 0.008
21 | ACGTCTTC | -0.0674 ± 0.12
22 | ACCTATGC | 0.0424 ± 0.05

Row | Sequence | PBM E-score of 8-mer
23 | CGCGTTAG | 0.307 ± 0.069
24 | ACCCCAGC | -0.0492 ± 0.03
25 | ATTACGAA | -0.192 ± 0.0061
26 | CCCGACAG | 0.0718 ± 0.038
27 | ACGCAAAC | 0.0596 ± 0.0051
28 | CGGCATAG | -0.0343 ± 0.023
29 | TATTTTAA | -0.0888 ± 0.074
30 | CCCATCAG | -0.2 ± 0.042
31 | AGGCCGGC | -0.0199 ± 0.03
32 | CCCGTTAG | 0.2017 ± 0.0019
33 | ATATGAAT | -0.00217 ± 0.023
34 | TCTCAAGA | -0.0529 ± 0.036
35 | CGTATGGC | -0.0819 ± 0.014
36 | GTCTTGGA | -0.322 ± 0.015
37 | CCGCGCCC | 0.08 ± 0.071
38 | AAGAGTAC | -0.19 ± 0.041
39 | AATAGAGC | -0.239 ± 0.052
40 | GGCCCGGA | -0.188 ± 0.008
41 | CGAGGTCA | 0.0539 ± 0.041
42 | GCTCCCGA | -0.0584 ± 0.032
43 | CAAAATCA | 0.0393 ± 0.049
44 | CGGTGTAG | 0.17 ± 0.083

Row | Sequence | PBM E-score of 8-mer
45 | ATAGTACA | -0.146 ± 0.035
46 | AGCTGCGC | -0.0139 ± 0.044
47 | AGGGAAGG | -0.238 ± 0.0064
48 | TAAATCTA | -0.00768 ± 0.063
49 | CCATTCTC | 0.0958 ± 0.018
50 | ACTTGCGC | 0.15 ± 0.042
51 | AAGCATCA | 0.0413 ± 0.062
52 | ACCACTTC | 0.119 ± 0.01
53 | AACGCAAT | 0.115 ± 0.0013
54 | TCGCTGCA | -0.057 ± 0.069
55 | CTGGATTA | -0.116 ± 0.033
56 | TTACACAA | 0.152 ± 0.035
57 | CTGTAGAC | -0.0438 ± 0.026
58 | ATACTCGA | -0.0619 ± 0.038
59 | CGCGCGCG | 0.225 ± 0.067
60 | CACGGAAG | 0.17 ± 0.018
61 | GAGCGCGA | 0.279 ± 0.053
62 | AACGTAGC | -0.0485 ± 0.053
63 | ATGACTTA | 0.0301 ± 0.045
64 | GCTGCTCC | -0.0836 ± 0.039
65 | CGCCGTCA | 0.226 ± 0.022
66 | TCCGCTAA | 0.109 ± 0.018

Row | Sequence | PBM E-score of 8-mer
67 | ACCCTTCT | -0.0049 ± 0.025
68 | CGCTGTAC | -0.164 ± 0.046
69 | ACATGGGC | -0.19 ± 0.036
70 | TAGGCAGA | -0.293 ± 0.046
71 | GCTGGGCA | -0.138 ± 0.015
72 | AGGTCCTC | -0.282 ± 0.026
73 | AGCGTGAA | 0.413 ± 0.018
74 | GAGTGATC | 0.00628 ± 0.033
75 | ATTTACGA | -0.0762 ± 0.0035
76 | ATCTGACC | -0.235 ± 0.0079
77 | AAGACCGC | 0.0751 ± 0.011
78 | ACCAACTA | -0.043 ± 0.023
79 | TCCGGAGA | -0.106 ± 0.094
80 | CATCATCG | -0.00997 ± 0.002
81 | CCACCTAG | 0.183 ± 0.046
82 | AACTGGAC | 0.0345 ± 0.029
83 | ATACGCAA | -0.0704 ± 0.069
84 | ACTGGGGA | -0.0213 ± 0.078
85 | AGTCTTGA | -0.0994 ± 0.071
86 | AAGAAGCG | 0.161 ± 0.022
